From PubChem BioAssay AID651820 (National Center for Advancing Translational Sciences (NCATS), 2012)
Screen size: about 340,000 compounds; about 12,000 (3.5%) were called active. The inconclusive results got no clear call from the source; some entries with a clear call stand among them for comparison. Calls come from the whole dose curve; as a rule, active = well fitted inhibition curve with a large enough effect; inconclusive = small, poorly fitted or top-dose-only effect, or another doubt; inactive = no such curve, though single readings can be large or run the other way. Potencies of inconclusive entries are left out as doubtful fits.
% is set by controls: 0 for no effect and ±100 for the full control effect; potency is the fitted concentration of half-maximal effect; tags give direction and shape of the fitted curve.

Experiment: qHTS Assay for Inhibitors of Hepatitis C Virus (HCV)
Conditions: Huh7.5.1 HCVcc-Cre (HCVcc is cell-culture hepatitis C virus) infection, luciferase reporter, 44 h; activity change, negative = inhibition: at 41.8 µM (top of the series) unless noted
Method in brief: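 Reporter virus HCVcc-Cre (~0.5 moi) infects cells exposed to compound; seeding density 1,000 cells/well with 4 h settling beforehand. Luminescence, 15 sec read, taken 44 h post-infection following a 15 min RT substrate incubation.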
For `Nc1nc(-c2ccccc2)ns1`, the “activity change, negative = inhibition” value was inactive: 16%.
For `Cc1ccc2c(c1)c1c(n2CC(O)CNC2CCCC2)CCCC1` (centres undefined), the Potency was inconclusive [inhibitor, partial curve].
With `COc1ccccc1CNC(=O)c1cnc2ccccn2c1=O` the “activity change, negative = inhibition” value was inactive: 7.37%.
For `CCOC(=O)N1CCN(c2c(NCc3ccc(Cl)cc3)c(=O)c2=O)CC1`, the Potency was inconclusive [inhibitor, full curve, poor fit].
For `O=C(NCC1CCCO1)c1ccccc1-c1nc(-c2ccc(Cl)cc2)no1` (centres undefined), the Potency was inconclusive [inhibitor, single point].
For `COc1ccccc1NC(=O)C(C)NC(c1ccccc1)c1ccccc1` (centres undefined), the Potency was inconclusive [inhibitor, single point].
In the case of `Cc1ccc(-c2cn(CCC(=O)O)c(-c3ccc(Cl)nc3)n2)cc1`, the “activity change, negative = inhibition” value was inactive: 4.11%.
In the case of `CCOc1ccccc1C(=O)N/N=C/c1coc2ccc(Cl)cc2c1=O`, the Potency was inconclusive [inhibitor, single point].
For `CC[C@]12c3[nH]c4cc(CCC(=O)N(C)C)ccc4c3CCN1C(=O)[C@@H](CC(=O)NCCCn1ccnc1)C[C@@H]2C(=O)N1CCN(C(=O)c2ccco2)CC1`, the Potency was inconclusive [inhibitor, single point].
With `O=C(COc1ccc(/C=N/NC(=O)c2cc3ccccc3o2)cc1Br)Nc1ccccc1` the Potency was inconclusive [inhibitor, partial curve].
In the case of `NS(=O)(=O)c1ccc(N2N=C(c3ccccc3)CC2c2cccc(Br)c2)cc1` (centres undefined), the Potency was inconclusive [inhibitor, single point].
With `COc1ccc(Cc2nn3c(-c4cc(OC)c(OC)c(OC)c4)nnc3s2)cc1` the Potency was inconclusive [inhibitor, single point].
With `O=C(/C=C/c1ccccc1)Nc1ccc(Cl)cn1` the Potency was inconclusive [inhibitor, single point].
In the case of `CC1(c2ccc(OC(F)F)cc2)NC(=O)N(CC(=O)Nc2ccc(N3CCCCC3)cc2)C1=O` (centres undefined), the Potency was inconclusive [inhibitor, single point].
For `CCNC(=S)Nc1cc(-c2ccc(Cl)cc2)[nH]n1`, the Potency was inconclusive [inhibitor, single point].
In the case of `C=CCn1c(O)c(C(CC)=Nc2ccc3c(c2)CCC3)c(=O)[nH]c1=O`, the “activity change, negative = inhibition” value was inactive: 18.9%.
In the case of `Cc1ccc(Cl)cc1-n1c(SCC(=O)NCCC2=CCCCC2)nc2n[nH]c(C)c2c1=N`, the Potency was inconclusive [inhibitor, single point].
In the case of `Oc1ccc(Nc2ncnc3ccccc23)cc1`, the Potency was inconclusive [inhibitor, single point].
In the case of `COc1ccc(C(CCNCc2ccc(OC(C)C)cc2)c2ccccc2OC)cc1` (centres undefined), the Potency was inconclusive [inhibitor, single point].
For `CCOc1ccccc1C(=O)NC1CC2CCCC(C1)N2Cc1ccccc1` (centres undefined), the Potency was inconclusive [inhibitor, partial curve, poor fit].
For `CCOC(=O)C1CCCN1C(=O)C1(NC(C)=O)CCCC1` (centres undefined), the “activity change, negative = inhibition” value was inactive: 8.54%.
For `COc1ccccc1NC(=O)Cn1ccn(-c2cccc3ccccc23)c(=O)c1=O`, the “activity change, negative = inhibition” value was inactive: -10.4%.
With `COc1ccc(-c2nn(-c3ccccc3)cc2/C=N/N=C(N)N)cc1OC` the Potency was inconclusive [inhibitor, single point].
For `COc1cc2oc(=O)cc(-c3cccc(-c4cccc(C)c4)c3)c2c(OC)c1OC`, the Potency was inconclusive [inhibitor, partial curve].
With `O=C(O)C1CCN(C(=O)c2ccco2)CC1` the “activity change, negative = inhibition” value was inactive: -3.65%.
In the case of `O=C(CCNC(=O)c1ccc([N+](=O)[O-])cc1)Nc1cccc(S(=O)(=O)N2CCCCC2)c1`, the Potency was inconclusive [inhibitor, single point].
With `Oc1c(CN2CCCCC2)ccc2cccnc12` the Potency was active: 10 µM.
For `COc1cccc(-c2nc(S(=O)(=O)c3ccccc3)c(N3CCOCC3)o2)c1`, the Potency was inconclusive [inhibitor, partial curve].
With `Cc1nc(N)[nH]c(=O)c1CCCNc1ccc(CCC2(CCl)OCCO2)cc1` the “activity change, negative = inhibition” value was inactive: 15%.
For `Cc1onc(-c2ccccc2)c1C(=O)N1CCN(S(=O)(=O)c2ccc(OC(F)(F)F)cc2)CC1`, the “activity change, negative = inhibition” value was inactive: 16.5%.
With `O=C(Cn1cc(C(=O)COc2ccccc2)c2ccccc21)NCc1ccco1` the Potency was inconclusive [inhibitor, single point].
For `O=C(Nc1cccc(NC(=O)c2ccco2)c1)c1ccccc1`, the Potency was inconclusive [inhibitor, full curve, poor fit].
With `CCOC(=O)C(N)CSC1CC(=O)N(CCc2ccccc2)C1=O` (centres undefined) the “activity change, negative = inhibition” value was inactive: 9.3%.
With `CC(=O)NC(CC(=O)N(C)Cc1cccc(Cl)c1Cl)c1ccccc1` (centres undefined) the Potency was inconclusive [inhibitor, single point].
For `Cc1ccc(NC(=O)CNc2cccc(S(=O)(=O)N3CCCC3)c2)cc1F`, the Potency was inconclusive [inhibitor, single point].
In the case of `C[N+](C)(CCOc1ccccc1)Cc1ccccc1`, the “activity change, negative = inhibition” value was inactive: -27.3%.
With `COc1cc(/C=C/C(=O)c2ccc3c(c2)OCCO3)cc(Br)c1OCC(=O)N(C)C` the Potency was active: 7.08 µM.
With `O=C(NCc1ccco1)c1ccc(S(=O)(=O)c2cccc(S(=O)(=O)N3CCOCC3)c2)cc1` the Potency was “inactive”.
For `COc1ccc(OC)c(C(=O)C(=O)c2cc(OC)ccc2OC)c1`, the Potency was inconclusive [inhibitor, partial curve].
For `Cc1nn(-c2ccc(F)cc2)c(Cl)c1C(=O)OC(C)C(=O)N(C)C1CCCCC1` (centres undefined), the Potency was inconclusive [inhibitor, single point].
For `CNc1nc(NCc2ccccc2)c2ccccc2n1`, the Potency was active: 11.2 µM.
In the case of `Cc1ccc(O)c(C(=O)c2cc(C(=O)NCc3ccccc3)c(=O)n(Cc3ccccc3)c2)c1`, the Potency was inconclusive [inhibitor, single point].
With `Cc1ccc(C)c(-n2nnnc2SCC(=O)c2ccc3c(c2)NC(=O)CO3)c1` the Potency was inconclusive [inhibitor, single point].
With `COc1ccc([N+](=O)[O-])cc1/C=N/Nc1nn[nH]n1` the “activity change, negative = inhibition” value was inactive: 20.5%.
With `COc1ccccc1NS(=O)(=O)c1cc(NC(=O)c2ccc(=O)[nH]c2)ccc1N1CCOCC1` the Potency was inconclusive [inhibitor, partial curve].
With `CCC1CCCCN1CCCNC(=O)CNC(=O)c1nn(-c2ccc(OC)c(Cl)c2)c(=O)c2ccccc12` (centres undefined) the Potency was inconclusive [inhibitor, single point].
For `COc1ccc(CNC(=O)CN(c2cccc([N+](=O)[O-])c2)S(C)(=O)=O)cc1`, the “activity change, negative = inhibition” value was inactive: 15.3%.
With `O=C(c1ccncc1)N1CCCC(N2CCN(c3ccc(F)cc3)CC2)C1` (centres undefined) the “activity change, negative = inhibition” value was inactive: 4%.
With `CCN(C(=O)c1cn(CC)c(=O)c2cc(OC)c(OC)cc12)c1ccccc1C` the Potency was inconclusive [inhibitor, partial curve].
With `Cc1ccc(-n2nnnc2-c2cnc3ccc(Cl)cc3c2-c2ccccc2)cc1` the Potency was active: 10 µM.
For `O=C(CCC(=O)N1CCOc2ccc(Cl)cc21)NCCCN1CCC(Cc2ccccc2)CC1`, the Potency was inconclusive [inhibitor, partial curve].
With `O=C(Nc1ccc(NS(=O)(=O)c2ccccc2)cc1)c1ccccc1Cl` the Potency was inconclusive [inhibitor, partial curve].
With `Cc1cccc(/C=C2\Sc3ccc(C(=O)N4CCC(C)CC4)cc3N(C)C2=O)c1` the Potency was inconclusive [inhibitor, single point].
With `COC(=O)[C@H](Cc1ccccc1)NC(=O)Cn1cnc2c(NCc3ccccc3)ncnc21` the Potency was inconclusive [inhibitor, single point].
With `O=C(Cc1cccc2ccccc12)Nc1ccccc1C(=O)O` the “activity change, negative = inhibition” value was inactive: 1.68%.
For `CC(C)NC1(C#N)CCN(Cc2ccccc2)CC1`, the “activity change, negative = inhibition” value was inactive: -0.104%.
With `CCn1nnc(-c2ccccc2NC(=O)c2cc(OC)c(OC)c(OC)c2)n1` the Potency was inconclusive [inhibitor, partial curve].
With `O=C(c1ccc(Br)o1)N1CCN(Cc2ccccc2Cl)CC1` the “activity change, negative = inhibition” value was inactive: -8%.
For `CC(OC(=O)C1CCN(S(=O)(=O)c2ccc(C(C)(C)C)cc2)CC1)C(=O)N(C)C1CCCCC1` (centres undefined), the Potency was inconclusive [inhibitor, single point].
For `Cc1nc(SCC(=O)c2ccccc2)c(C#N)c(-c2ccco2)c1C(=O)NCc1ccco1`, the Potency was inconclusive [inhibitor, single point].
With `COc1ccc(CNc2cc(C)nc3ncnn23)c(OC)c1` the Potency was inconclusive [inhibitor, partial curve].
With `CC(=O)Nc1nnc(SCC(=O)NCc2ccc3c(c2)OCO3)s1` the “activity change, negative = inhibition” value was inactive: 22.5%.
In the case of `CCN(CC)c1ccc(/C=N/n2nnnc2N)c(O)c1`, the “activity change, negative = inhibition” value was inactive: -0.269%.
For `CCn1c(SCC(=O)N/N=C/c2c[nH]c3ccccc23)nnc1-c1ccc(C(C)(C)C)cc1`, the Potency was inconclusive [inhibitor, single point].
For `c1ccc(-c2nc3ccccn3c2-c2ccccc2)cc1`, the Potency was inconclusive [inhibitor, partial curve].
In the case of `FC(F)(F)c1ccc(Oc2ccc3ccccc3c2Br)nc1`, the Potency was inconclusive [inhibitor, partial curve].
In the case of `CCOC(=O)c1ccccc1NC(=O)CSc1nnnn1C`, the “activity change, negative = inhibition” value was inactive: -22.7%.
For `C[C@H](CO)N1C[C@H](C)[C@@H](CN(C)C(=O)Nc2ccc(C(F)(F)F)cc2)Oc2c(NC(=O)Nc3ccc(C(F)(F)F)cc3)cccc2C1=O`, the Potency was inconclusive [inhibitor, single point].
With `CCOC(=O)c1sc(NC(=O)c2ccc3nc[nH]c3c2)nc1C` the Potency was inconclusive [inhibitor, partial curve].
